According to PubChem BioAssay AID1645882 (National Center for Advancing Translational Sciences (NCATS), 2021):
Screen size: about 16,000 compounds; about 120 (0.75%) were called active. Not shown: some 4% with an inconclusive outcome. The call rests on the fitted dose curve; in most records, active means well fitted inhibition curve with a large enough effect; inconclusive means small, poorly fitted or top-dose-only effect; inactive means no such curve, though single readings can be large or run the other way. The list shows a part of the results.

Molecular target: Rap guanine nucleotide exchange factor 3 (Homo sapiens) (UniProt O95398)
Test: Validation qHTS for antagonist of cAMP-regulated guanine nucleotide exchange factor 3 (EPAC1); further: nearly all actives have a fitted effect of over 75% in size;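 on activity change, negative = inhibition: plate controls were DMSO for no effect and ATA control for full effect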
Conditions: EPAC1 Rap1B-BODIPY-GDP exchange, fluorescence; series mostly up to 150 µM; activity change, negative = inhibition: at the top concentration
Outline: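 Nucleotide exchange followed as fluorescence loss when BODIPY-GDP leaves Rap1B (480 nm excitation, 540 nm emission), read at 5 min intervals over 30 min. Reaction: 100 nM EPAC1, 250 nM RAP1B-BODIPY-GDP, 50 uM GDP; ATA and DMSO define normalization.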
Potency means the concentration at half of the fitted maximal effect.

Chain of UniProt O95398 (O95398 whole entry, looked up): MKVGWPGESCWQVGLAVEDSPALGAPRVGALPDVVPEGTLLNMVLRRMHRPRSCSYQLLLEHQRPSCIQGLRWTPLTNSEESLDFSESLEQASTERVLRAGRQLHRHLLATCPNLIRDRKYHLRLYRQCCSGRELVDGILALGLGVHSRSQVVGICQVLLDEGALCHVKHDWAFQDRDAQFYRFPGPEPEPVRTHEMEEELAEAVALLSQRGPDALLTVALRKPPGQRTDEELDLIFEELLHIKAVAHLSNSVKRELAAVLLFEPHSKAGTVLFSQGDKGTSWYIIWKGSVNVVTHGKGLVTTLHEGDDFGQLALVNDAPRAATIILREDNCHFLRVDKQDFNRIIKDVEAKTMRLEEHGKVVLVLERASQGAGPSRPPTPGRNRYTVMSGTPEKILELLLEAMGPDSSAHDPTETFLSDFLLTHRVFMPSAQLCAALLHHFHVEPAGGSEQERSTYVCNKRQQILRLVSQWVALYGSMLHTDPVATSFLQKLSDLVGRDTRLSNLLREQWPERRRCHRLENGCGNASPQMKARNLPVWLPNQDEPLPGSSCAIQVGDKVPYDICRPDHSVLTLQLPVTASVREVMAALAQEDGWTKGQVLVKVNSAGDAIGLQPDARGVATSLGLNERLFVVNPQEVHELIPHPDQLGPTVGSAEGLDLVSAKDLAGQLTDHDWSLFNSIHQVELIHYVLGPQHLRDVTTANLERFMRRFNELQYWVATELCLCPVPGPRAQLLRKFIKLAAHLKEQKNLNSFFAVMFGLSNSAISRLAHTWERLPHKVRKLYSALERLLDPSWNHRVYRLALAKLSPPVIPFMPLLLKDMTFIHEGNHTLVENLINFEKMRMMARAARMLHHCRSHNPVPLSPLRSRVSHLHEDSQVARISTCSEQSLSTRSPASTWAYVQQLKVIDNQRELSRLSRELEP

Activity change, negative = inhibition, inactive:
CC(NC(=O)c1cc(F)ccc1F)c1nnc2n1CCN(Cc1ccccc1O)CC2 (stereo not given) -2.53%
COc1cccc(-c2ccnc(-n3ncc(C(=O)NCc4cccnc4)c3C3CC3)n2)c1 12.6%
COCc1c(C(=O)NC2CCCCC2)cnn1-c1nccc(-c2ccccc2OC)n1 7.41%
N#Cc1cccc(NC(=O)N2CCCC3(CCN(S(=O)(=O)c4ccccc4)CC3)C2)c1 6.79%
CC(=O)N1CCC2(CCN(Cc3ccncc3)CC2)CC1 4.68%
CNCCc1ccccn1
C[C@@H]1CN(Cc2ccc3c(c2)CN(Cc2cccc(O)c2)CCO3)C[C@H](C)O1 6.71%
COc1ccc(Oc2ncc3ncc(=O)n(CCc4ccccc4)c3n2)cc1 9.42%
Cc1cccc2nc(CNC(=O)CN3Cc4ccccc4OC(c4ccccc4F)C3)cn12 (stereo not given) 6.47%
Cc1noc(C)c1C(=O)N1CCC2(CCN(Cc3ccncc3)CC2)CC1 13.6%
Cn1cc(-c2nc3cnc(N4CCNCC4)nc3n(C3CC3)c2=O)c2ccccc21 26.5%
CC1=C(C)C(=O)C(C(CCCCCC(=O)O)c2ccccc2)=C(C)C1=O (stereo not given) 17.7%
NCCCCCC(=O)O
O=C1C[C@H]2C=CCc3cccc(c32)CN1Cc1cccc(F)c1 -19.8%
CN(C)c1ccc(/C=C/c2cc(Cl)nc3ccccc23)cc1 26%
CCc1ccc(S(=O)(=O)NCc2nc(N3CCCC3)c3cccc(C)c3n2)cc1 3.42%
CC(C)CN1CC2(CCN(C(=O)c3ccco3)CC2)C1 -0.364%
Cc1cc(C)n(-c2cccc(C(=O)NCC3Cc4cccc(-c5cccnc5)c4O3)c2)n1 (stereo not given) 6.83%
CO[C@H]1[C@H](NC(=O)c2ccco2)c2ccccc2C12CCN(Cc1cnn(-c3ccccc3)c1)CC2 3.88%
CC(=O)OC/C=C(\C)CC/C=C(\C)CC/C=C(\C)CC/C=C(\C)CC/C=C(\C)CC/C=C(\C)CC/C=C(\C)CC/C=C(\C)CCC=C(C)C 0.982%
CN1CCN(c2ncc3nc(-c4cn(C)c5ccccc45)c(=O)n(-c4ccccc4)c3n2)CC1 2.74%
Cc1ccsc1C(=O)N(Cc1cc2cc3c(cc2nc1N1CCOCC1)CCC3)CC1CCCO1 (stereo not given) 22%
COC(=O)C1CCN(Cc2ccc3c(c2)CN(C(=O)c2cc(C)on2)CCO3)CC1 17.4%
Cc1cccc(CNc2cc(-c3ccccc3Cl)ncn2)c1 -6.95%
CC1(C)Oc2ccc3ccc(=O)oc3c2CC1=O 21.3%
COC(=O)[C@@H]1CCCN1C(=O)c1cc(NC(=O)C2CCC2)c2c(c1)nc(-c1ccncc1)n2C 9.33%
COCCn1c(=O)c(-c2cccs2)nc2cnc(N(C)C)nc21 39.6%
CC(C)c1cccc(O)c(=O)c1
CC12C(=O)OC(=O)C1(C)C1CCC2O1 (stereo not given)
Nc1nc2c(ncn2COC(CO)CO)c(=O)[nH]1
COCCn1c(=O)cnc2cnc(Nc3cccc(OC)c3)nc21 8.34%
COc1ccc(-c2cnc(-c3cccnc3)o2)cc1 -10.6%
CCCCCCCCCCCCCCCC(=O)OC[C@H](O)[C@H]1OC(=O)C(O)=C1O -24.4%
Cc1cnc(-n2ncc(C(=O)NCc3ccncc3)c2C2CC2)nc1-c1cccs1 19.6%
CC1(C)C(=O)C=C[C@@]2(C)C1C=C[C@@]1(C)C2CC[C@@]2(C)C(c3ccoc3)OC(=O)C3OC312 (stereo not given in full) 1.83%
O=C1C[C@H]2C=CCc3cccc(c32)CN1Cc1ccc(Cl)cc1 -0.638%
C[C@@H](C1[C@@H](O)CC2C3C=CC4C[C@@H](O)CC[C@]4(C)[C@H]3CC[C@@]21C)[C@@H]1CCCCN1 (stereo not given in full) 28.2%
COC(=O)C1CCN(c2nc(CN(C)C3CCOC3)nc3cc(OC)c(OC)cc23)CC1 (stereo not given) 8.21%
CCN1C(=O)c2ccccc2C1Nc1ccc(OCCN2CCCCC2)cc1 (stereo not given) 38.2%
Cc1ncc(CO)c(C=O)c1O
COc1ccc(-c2nc3cnc(N4CCN(C)CC4)nc3n(Cc3cccc(OC)c3)c2=O)cc1 9.41%
COc1ncc2nc(-c3cn(C)c4ccccc34)c(=O)n(CCc3ccccc3)c2n1 2.57%
CN(C)c1ccc(N=NS(=O)(=O)O)cc1 -12.6% [at 320 µM]
CC(C)(C)[C@H]1CCC(=O)N([C@H](CSc2ccccc2)Cc2ccccc2)CC1 -6.24%
COc1ccccc1CN1CCC2(CC1)CCN(C(C)=O)CC2 5%
Clc1cccc(Cl)c1NC1=NCCN1
CC(=O)NCCNc1cc(-c2ccccc2CN(C)C)ncn1 5.35%
Cn1cccc1C(=O)N1CCC2(CCN(C(=O)Nc3ccccc3)CC2)CC1 10%
CN(C)S(=O)(=O)c1ccc2c(c1)/C(=C/c1cc3c([nH]1)CCCC3)C(=O)N2 37.6% [at 75.8 µM]
O=C1[C@H]2CCCC[C@H]2C(=O)N1CCCCN1CCN(c2nsc3ccccc23)CC1 25.7%
C[C@]12C=CC(=O)N[C@@H]1CC[C@@H]1[C@@H]2CC[C@]2(C)[C@@H](C(=O)Nc3cc(C(F)(F)F)ccc3C(F)(F)F)CC[C@@H]12 25%
CC(C)C[C@@H](CO)N1CCNCCC1=O 3.35%
Nc1ccn([C@H]2C[C@H](O)[C@@H](CO)O2)c(=O)n1 13.8%
Cc1oc(-c2ccccc2NC(=O)C2CCCO2)nc1CNC(=O)c1cc(F)c(F)cc1F (stereo not given) 11.8%
O=C(O)CN(CCN(CC(=O)O)CC(=O)O)CC(=O)O
CC1(C)S[C@@H]2[C@H](NC(=O)COc3ccccc3)C(=O)N2[C@@H]1C(=O)OCc1cccc2cccnc12 4.91%
CCCCCCCCN1[C@@H](CC(C)=O)c2ccc(/C=C/C(C)=O)cc2S1(=O)=O 21.3%
CCCNC(=O)NS(=O)(=O)c1ccc(Cl)cc1
CCN(CC)C(C)CN1c2ccccc2Sc2ccccc21 (stereo not given)
COCCNc1ccnc(-c2ccccc2C(F)(F)F)n1 -10.5%
CC(=O)O[C@]1(C(C)=O)CC[C@H]2[C@@H]3C=C(Cl)C4=CC(=O)CC[C@]4(C)[C@H]3CC[C@@]21C 9.93%
CN1CCN(CCc2ccc(Cl)c(Cl)c2)CC1 5.29%
COc1cccc(CCNc2ncnc3sc(C(=O)N4CCN(C)CC4)c(C)c23)c1 12.5%
CCC1C(=O)NCCN1Cc1ccc2c(c1)CN(Cc1ccc3c(c1)OCCO3)CCO2 (stereo not given) 18%

Potency, active:
N#C/C(=C\c1ccc(O)c(O)c1)C(=O)NCCCCc1ccccc1 100 µM
